Results on 4 compounds are retold here after PubChem BioAssay (NCI).

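Tested at 5 concentrations; 48 h exposure; 96-well plates; endpoints linearly interpolated, else capped at highest concentration. GI50: concentration for 50% inhibition of growth. TGI: total growth inhibition.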

The subject of the assay is NCI-H322M lung. As to the kind of experiment: NCI tumour cell line growth inhibition, 48 h.
On to `C#CCN(C)CCCOc1ccc(N(C)C(=O)c2cc(C(C)C)c(O)cc2O)cc1Cl`, for which the GI50 was 0.737 µM and the TGI is 19.1 µM.

As to `COc1cncc(-c2ccc3ncnc(N4CCc5ccc(Cl)cc54)c3c2)c1`, the GI50 was 1.85 µM and the TGI was 10 µM.

Take `CCN(CC)CCOc1ccc(C(=C(C)c2ccccc2)c2ccc(OCCN(CC)CC)cc2)cc1`: the GI50 was 4.46 µM and the TGI is 12.2 µM.

Turning to `O=C(c1ccc(O)cc1)C1[C@H](c2ccc(Br)cc2)[C@@H](c2ccccc2)NC12C(=O)Nc1ccccc12` (stereo partly drawn), the GI50 was 5.26 µM and the TGI is 10.4 µM.
